The record followed here is the BET-seq Pho4 binding data (Le et al. 2018).

This is one part of the list. The energies were worked out here from pooled read counts, against the library average; single values are noisy.

The experiment deals with T1, Pho4 (S. cerevisiae) (UniProt P07270).
T1 sequence: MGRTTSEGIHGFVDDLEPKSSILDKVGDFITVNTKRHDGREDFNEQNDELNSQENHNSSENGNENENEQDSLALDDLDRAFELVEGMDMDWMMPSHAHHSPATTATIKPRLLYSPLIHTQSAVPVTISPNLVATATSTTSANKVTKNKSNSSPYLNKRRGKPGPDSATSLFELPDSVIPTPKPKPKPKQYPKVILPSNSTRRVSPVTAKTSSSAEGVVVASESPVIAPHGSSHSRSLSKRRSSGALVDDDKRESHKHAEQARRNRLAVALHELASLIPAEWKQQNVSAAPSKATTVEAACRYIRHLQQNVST
Briefly: relative binding free energy (BET-seq); higher = weaker binding. Particulars: reference: library average.
Take TTGTTCACGTGTAAAA: the “relative binding free energy” value came to 0.28 kcal/mol.

As to CAAGTCACGTGTATGG, the “relative binding free energy” value is 0.02 kcal/mol.

For the sequence AGAATCACGTGTGAGT, the “relative binding free energy” value is 0.12 kcal/mol.

On to GATGACACGTGTTTTA, for which the “relative binding free energy” value is 0.13 kcal/mol.

Take GATAACACGTGTTAGT: the “relative binding free energy” value came out at 0.02 kcal/mol.

As to CGTGTCACGTGTTACT, the “relative binding free energy” value is 0.09 kcal/mol.

TGATACACGTGGTGTC: the “relative binding free energy” value is -0.11 kcal/mol.

Take ATCGTCACGTGATGTA: the “relative binding free energy” value was determined as 0.23 kcal/mol.

Regarding GTAGGCACGTGTATTA, the “relative binding free energy” value amounted to 0.09 kcal/mol.

With GTGTACACGTGGACGA, the “relative binding free energy” value stood at 0.13 kcal/mol.

For TTGCTCACGTGTGGTG, the “relative binding free energy” value stood at 0.33 kcal/mol.

Regarding TGTATCACGTGAAGAG, the “relative binding free energy” value is 0.26 kcal/mol.

For the sequence GAGTACACGTGGTTGA, the “relative binding free energy” value turned out to be 0.11 kcal/mol.

Consider GTGTGCACGTGTAGTG, for which the “relative binding free energy” value was determined as 0.05 kcal/mol.

In the case of TTGGTCACGTGGACGG, the “relative binding free energy” value turned out to be 0.18 kcal/mol.

On to ATTATCACGTGTGTCA, for which the “relative binding free energy” value is 0.12 kcal/mol.

In the case of ATTCGCACGTGAGCGT, the “relative binding free energy” value was 0.26 kcal/mol.

For the sequence AATGCCACGTGTTGTT, the “relative binding free energy” value is -0.04 kcal/mol.

ACGTGCACGTGGGCGT: the “relative binding free energy” value is -0.21 kcal/mol.

Turning to ACGTCCACGTGTTTGG, the “relative binding free energy” value was determined as 0.12 kcal/mol.

As to TAATTCACGTGATTTT, the “relative binding free energy” value was 0.38 kcal/mol.

With GTGCTCACGTGTCTTT, the “relative binding free energy” value is 0.3 kcal/mol.

Take ATCTTCACGTGGTTAT: the “relative binding free energy” value turned out to be 0.14 kcal/mol.

For ATTTTCACGTGGAGCA, the “relative binding free energy” value is 0.29 kcal/mol.

As to CGTATCACGTGGGTCT, the “relative binding free energy” value amounted to 0.02 kcal/mol.

In the case of ATAGCCACGTGTGTGT, the “relative binding free energy” value is -0.15 kcal/mol.

Consider GTGTCCACGTGATGGG, for which the “relative binding free energy” value was found to be 0.33 kcal/mol.

TTAGACACGTGGACGT: the “relative binding free energy” value turned out to be 0.11 kcal/mol.

As for TGTAGCACGTGGTGAT, the “relative binding free energy” value is -0.1 kcal/mol.

As to GTCTTCACGTGTAGTA, the “relative binding free energy” value stood at 0.35 kcal/mol.

With AGGGCCACGTGTGAGA, the “relative binding free energy” value is 0.04 kcal/mol.

For the sequence TGTTACACGTGGATGC, the “relative binding free energy” value was found to be 0.12 kcal/mol.

Consider TTTCGCACGTGTTGGC, for which the “relative binding free energy” value amounted to 0.14 kcal/mol.

Consider GAATTCACGTGTGCTT, for which the “relative binding free energy” value worked out at 0.46 kcal/mol.

As for GATGTCACGTGTATGA, the “relative binding free energy” value turned out to be 0.02 kcal/mol.

As for TGAAGCACGTGGTTTG, the “relative binding free energy” value is -0.1 kcal/mol.

As for GAATTCACGTGGTAGA, the “relative binding free energy” value came out at 0.27 kcal/mol.

Regarding TTAGACACGTGTTAAG, the “relative binding free energy” value was -0.05 kcal/mol.

As for TCGGGCACGTGGTGCT, the “relative binding free energy” value was -0.2 kcal/mol.

As for CTTGTCACGTGTGAGA, the “relative binding free energy” value is 0.21 kcal/mol.

On to GGCGGCACGTGGTTAG, for which the “relative binding free energy” value was -0.02 kcal/mol.

GGGCGCACGTGTTAGT: the “relative binding free energy” value is -0.02 kcal/mol.

For TCATTCACGTGGTGGA, the “relative binding free energy” value amounted to 0.17 kcal/mol.

TAAATCACGTGGGTGC: the “relative binding free energy” value is -0.06 kcal/mol.

Take CTTCACACGTGGGTGG: the “relative binding free energy” value was -0.12 kcal/mol.

Turning to GTGTGCACGTGGTAGG, the “relative binding free energy” value is -0.04 kcal/mol.

With ACAGTCACGTGTTGGT, the “relative binding free energy” value turned out to be 0.12 kcal/mol.

For the sequence AACTTCACGTGGGGGC, the “relative binding free energy” value turned out to be 0.15 kcal/mol.

As to TTTTGCACGTGGAGAC, the “relative binding free energy” value was -0.02 kcal/mol.

As for AAAGGCACGTGGTGCT, the “relative binding free energy” value was -0.08 kcal/mol.

Turning to GGTTTCACGTGTACGC, the “relative binding free energy” value turned out to be 0.44 kcal/mol.

In the case of GGTGTCACGTGTGGAT, the “relative binding free energy” value came to 0.23 kcal/mol.

Take GGGGACACGTGGACGT: the “relative binding free energy” value was 0.03 kcal/mol.

Turning to TATAACACGTGGTTTT, the “relative binding free energy” value is -0.04 kcal/mol.

Consider TAGTACACGTGGTTAT, for which the “relative binding free energy” value was found to be 0.07 kcal/mol.

As for ATAAACACGTGGATTG, the “relative binding free energy” value worked out at 0.08 kcal/mol.

For TCGTGCACGTGTTAGG, the “relative binding free energy” value amounted to 0.02 kcal/mol.

Turning to ATGTGCACGTGGTGAG, the “relative binding free energy” value is -0.01 kcal/mol.

On to CTAGGCACGTGGTTTA, for which the “relative binding free energy” value was -0.14 kcal/mol.

For the sequence GCCGGCACGTGTGGAT, the “relative binding free energy” value came to 0.12 kcal/mol.

Take AACGGCACGTGATGGG: the “relative binding free energy” value stood at 0.06 kcal/mol.

With TTCTTCACGTGGTAAT, the “relative binding free energy” value is 0.33 kcal/mol.

With TGGGCCACGTGTGTAA, the “relative binding free energy” value is -0.21 kcal/mol.

GATCGCACGTGTTTGG: the “relative binding free energy” value turned out to be 0.03 kcal/mol.

As to GCGGACACGTGGGCTG, the “relative binding free energy” value was -0.12 kcal/mol.

Consider GATGTCACGTGCATTG, for which the “relative binding free energy” value was determined as 0.21 kcal/mol.

For the sequence TAATTCACGTGGGCGT, the “relative binding free energy” value was determined as 0.16 kcal/mol.

In the case of TAGGTCACGTGGAGAA, the “relative binding free energy” value stood at 0.2 kcal/mol.

In the case of TCGGGCACGTGGTGGG, the “relative binding free energy” value is -0.18 kcal/mol.

Turning to CTTGGCACGTGATTTG, the “relative binding free energy” value is -0.02 kcal/mol.

In the case of ATCGGCACGTGGTGGG, the “relative binding free energy” value was -0.11 kcal/mol.

Turning to CTTAACACGTGGTGTT, the “relative binding free energy” value is -0.15 kcal/mol.

Consider GAGTGCACGTGTGGCA, for which the “relative binding free energy” value came to 0.19 kcal/mol.

With TTTAGCACGTGGTCGG, the “relative binding free energy” value is -0.26 kcal/mol.

ATGTCCACGTGGAGGG: the “relative binding free energy” value is 0.06 kcal/mol.

Turning to GTTCTCACGTGCGGTT, the “relative binding free energy” value came to 0.3 kcal/mol.

GTACTCACGTGATTTG: the “relative binding free energy” value amounted to 0.33 kcal/mol.

GTTAACACGTGTACTT: the “relative binding free energy” value came to 0.08 kcal/mol.

For ACGTTCACGTGGTTTG, the “relative binding free energy” value worked out at 0.03 kcal/mol.

For CGTGTCACGTGAGGCT, the “relative binding free energy” value is 0.13 kcal/mol.

Take TTTAACACGTGTCGGC: the “relative binding free energy” value is 0.08 kcal/mol.

In the case of TGCGTCACGTGAGTAG, the “relative binding free energy” value was 0.2 kcal/mol.

Consider ATTGGCACGTGTGGGC, for which the “relative binding free energy” value is -0.08 kcal/mol.

AGATTCACGTGGATAG: the “relative binding free energy” value is 0.15 kcal/mol.

On to TAGGTCACGTGTTTCA, for which the “relative binding free energy” value stood at 0.09 kcal/mol.

Regarding TAGGGCACGTGCATAT, the “relative binding free energy” value was -0.22 kcal/mol.

For ATTAACACGTGGTGGT, the “relative binding free energy” value is -0.11 kcal/mol.

Take TTTTACACGTGGTACA: the “relative binding free energy” value was found to be 0.01 kcal/mol.

As to GTGTTCACGTGGAGTA, the “relative binding free energy” value was found to be 0.23 kcal/mol.

For the sequence GATTGCACGTGATGGA, the “relative binding free energy” value stood at 0.28 kcal/mol.

As to TTACACACGTGTTGTT, the “relative binding free energy” value is -0.11 kcal/mol.

With TGTAGCACGTGGAGGA, the “relative binding free energy” value was -0.02 kcal/mol.

For AGGGTCACGTGTAAGA, the “relative binding free energy” value stood at 0.25 kcal/mol.

As for TAAGTCACGTGATGTG, the “relative binding free energy” value is 0.19 kcal/mol.

With TTTTGCACGTGTTTGC, the “relative binding free energy” value turned out to be 0.05 kcal/mol.

With GATGCCACGTGGGGAT, the “relative binding free energy” value is -0.18 kcal/mol.

In the case of GAGTGCACGTGGGGGG, the “relative binding free energy” value was -0.1 kcal/mol.

CTTGTCACGTGTGGAT: the “relative binding free energy” value came out at 0.29 kcal/mol.

For the sequence TTATTCACGTGGGGCA, the “relative binding free energy” value turned out to be 0.06 kcal/mol.

On to GGTTGCACGTGCGAGG, for which the “relative binding free energy” value was -0.06 kcal/mol.

On to TTGTACACGTGTTGTT, for which the “relative binding free energy” value came out at 0.12 kcal/mol.

On to AGAGGCACGTGAGTTG, for which the “relative binding free energy” value was found to be 0.08 kcal/mol.

In the case of ACTGGCACGTGTTTTT, the “relative binding free energy” value is -0.17 kcal/mol.

TTGCGCACGTGTAGTT: the “relative binding free energy” value was -0.05 kcal/mol.

Regarding TTTGACACGTGTGACA, the “relative binding free energy” value amounted to 0.12 kcal/mol.

Take TGAGTCACGTGGGTAG: the “relative binding free energy” value was -0.1 kcal/mol.

On to TTATGCACGTGGAGTG, for which the “relative binding free energy” value was -0.14 kcal/mol.

With TTCCGCACGTGAAGGT, the “relative binding free energy” value turned out to be 0.25 kcal/mol.

On to TATTACACGTGTGTTA, for which the “relative binding free energy” value turned out to be 0.14 kcal/mol.

Turning to ATTCTCACGTGTAAGT, the “relative binding free energy” value is 0.13 kcal/mol.

Take ATATTCACGTGTAAAG: the “relative binding free energy” value came out at 0.15 kcal/mol.

With GAGTTCACGTGGTGGC, the “relative binding free energy” value came out at 0.4 kcal/mol.

ATTTACACGTGGTATG: the “relative binding free energy” value is 0.01 kcal/mol.

In the case of GATTGCACGTGCTAGG, the “relative binding free energy” value was 0.01 kcal/mol.

Turning to AGGTTCACGTGTAAAG, the “relative binding free energy” value came to 0.31 kcal/mol.
